Reference: PubChem BioAssay AID485344 (National Center for Advancing Translational Sciences (NCATS), 2010)
Hit rate of the full screen: of about 340,000 compounds, about 6,900 (2%) were called active. Rule as the data show it: active = inhibition above about 30%; inactive = below that, where a call was filed. This is a selection; strong and weak results do not stand in their true shares. The source gives no active or inactive call for entries shown without one.

biological target: D(2) dopamine receptor (Homo sapiens) (UniProt P14416); experiment: HTS Assay for Allosteric Antagonists of the Human D2 Dopamine Receptor: Primary Screen for Antagonists; conditions: HEK293 TREx D2 cells, calcium flux, dopamine EC80; at 10 µM; stronger effect = higher value; also: 0% is about no effect
Sequence of UniProt P14416 (P14416 whole entry, looked up): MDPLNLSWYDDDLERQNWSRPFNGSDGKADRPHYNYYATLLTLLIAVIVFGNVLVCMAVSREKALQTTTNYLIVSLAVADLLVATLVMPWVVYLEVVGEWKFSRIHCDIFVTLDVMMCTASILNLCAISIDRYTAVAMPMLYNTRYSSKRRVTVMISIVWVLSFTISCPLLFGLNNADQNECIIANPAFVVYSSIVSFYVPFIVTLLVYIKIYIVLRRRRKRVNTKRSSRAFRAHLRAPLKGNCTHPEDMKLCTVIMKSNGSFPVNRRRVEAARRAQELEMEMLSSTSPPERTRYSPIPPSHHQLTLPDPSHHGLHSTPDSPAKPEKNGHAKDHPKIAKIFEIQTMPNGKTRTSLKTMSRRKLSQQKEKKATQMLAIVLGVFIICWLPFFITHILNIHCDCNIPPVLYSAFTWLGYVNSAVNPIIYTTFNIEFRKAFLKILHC
Procedure, shortened: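 Measurement of antagonist activity uses fluorescent calcium dye in inducible HEK293 T-REx D2 cells: 10 s baseline, compound addition with 180 s read, EC80 dopamine addition with a further 180 s read.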

| Structure (SMILES) | inhibition |
| --- | --- |
| CCOC(=O)c1c(NC(=O)CS(=O)(=O)c2ccc(C)cc2)sc2c1CCC(C)C2 (stereo not drawn) | -7.44% |
| CCc1ccccc1NC(=O)N1CCN(c2nnc(C)c3c(C)n(-c4ccccc4)nc23)CC1 | -14.8% |
| Cc1ccc2nc(-c3ccccc3O)c(Nc3ccccc3C)n2c1 | 8.64% |
| O=C(C1CCC1)N1CCc2cc(S(=O)(=O)N3CCN(c4ccccc4)CC3)ccc21 | 5.25% |
| CCOc1ccc(-n2cc(C(=O)Nc3ccccc3OCC)c3cc(OC)c(OC)cc3c2=O)cc1 | -2.46% |
| CC1CCN(c2nnc(-n3cccc3CNc3cccc(F)c3)s2)CC1 | 1.31% |
| COc1cc2ccccc2cc1C(=O)N1CCN(c2nc3c(C)cc(C)cc3s2)CC1 | -21.9% |
| COc1ccccc1OCC(=O)Nc1nnc2n1CCS2 | 18.6% |
| CCCc1nnc(N2C(=O)c3oc4ccc(F)cc4c(=O)c3C2c2ccc(C(=O)OC)cc2)s1 (stereo not drawn) | 6.26% |
| O=C(COc1ccccc1F)Nc1ccccc1OCc1cc(=O)n2ccccc2n1 | 3.62% |
| CC(C)c1ccc(NC(=O)c2ccc(F)c(S(=O)(=O)N3CCCC3)c2)cc1 | -19.1% |
| COC(=O)c1ccccc1NC(=O)CN(c1ccccc1OC)S(C)(=O)=O | -4.97% |
| Cc1ccc(NC(=O)CSc2nc(-c3ccc(F)cc3)nc3c2Cc2c(CO)cnc(C)c2O3)cc1C | -14.1% |
| CN(Cc1ccccc1)C(=O)CCS(=O)(=O)c1cc(Br)cc2c1N(C(=O)C1CC1)CC2 | 8.32% |
| O=C(NC(=O)N1CCN(c2cccc(Cl)c2)CC1)c1ccc(Cl)cc1 | active: 56.8% |
| CCC1=Nc2cc(C(=O)NC(C)c3ccccc3)ccc2Sc2ccc(Cl)cc21 (stereo not drawn) | -2.85% |
| COc1ccc2c(c1)CCc1sc(NC(=O)c3ccc(Cl)cc3)nc1-2 | -2.33% |
| COCCCNC(=O)CN1C(=O)COc2ccc(S(=O)(=O)N3CCCCCC3)cc21 | -0.116% |
| COc1ccc(-n2c(=O)c3ccccc3n(CC(=O)NCCc3ccccc3)c2=O)c(OC)c1 | -4.72% |
| Cc1ccc(NC(=O)CCc2c(C)nc3c(-c4ccccc4)c(C)nn3c2C)c(C)c1 | -12.2% |
| CC1CCN(S(=O)(=O)c2cn(CC(=O)Nc3ccc(F)c(Cl)c3)c(=O)c3ccccc23)CC1 | 16.5% |
| Cc1cccc(-n2cc(-c3ccccc3)c3c(NC(C)C)ncnc32)c1 | 11.6% |
| O=C(Nc1ccc(OC(F)(F)F)cc1)C1CCCN(S(=O)(=O)c2cccc3nonc23)C1 (stereo not drawn) | 11.9% |
| CC(=O)N1c2ccc(S(=O)(=O)NCC3CCC(C(=O)Nc4ccccc4C)CC3)cc2CC1C (stereo not drawn) | 7.34% |

| Structure (SMILES) | inhibition |
| --- | --- |
| CCCCN(C)CCCNC(=O)c1cc(=O)[nH]c2ccc(S(=O)(=O)N3CCCCC3)cc12 | -3.46% |
| C=CCN=C1S/C(=C\c2ccc(Cl)cc2)C(=O)N1CC=C | active: 79.6% |
| CCCN1C(=O)C(O)(CC(=O)c2ccc(CC)cc2)c2cc(Br)ccc21 (stereo not drawn) | 13% |
| Cc1cccc(OCC(=O)Nc2nonc2-c2ccc(Br)cc2)c1C | 2.42% |
| CCOc1ccc(CC(=O)Nc2ccc3c(c2)N(C)C(=O)c2ccccc2S3)cc1OCC | -17.7% |
| O=C(COc1ccc(Cl)cc1)Nc1sc2c(c1C(=O)Nc1cccc(Cl)c1)CCCC2 | -5.64% |
| CCc1ccc(OCC(=O)N(Cc2ccc(C)cc2)Cc2ccco2)cc1 | -7.5% |
| Cc1cccc(C)c1-n1ncc(C(=O)NCc2ccc3c(c2)OCO3)c1C1CCN(C(=O)OC(C)(C)C)CC1 | 4.17% |
| CCn1cc(C(=O)NCCc2ccc(Cl)cc2)c(=O)c2cc(S(=O)(=O)N3CCCCCC3)ccc21 | 8.42% |
| Cc1nn(CCCC(=O)Nc2cccc(C(F)(F)F)c2)c(=O)c2nn(-c3ccccc3)c(C)c12 | -12.4% |
| CCN(CC)CCN(C(=O)c1ccc2c(c1)CCCC2)c1nc2ccc(C)cc2s1 | active: 46.5% |
| COc1cc(NC(=O)Cn2cnc3sc(C)c(S(=O)(=O)N4CCC(C)CC4)c3c2=O)cc(OC)c1OC | -8.47% |
| Cc1ccc2c(=O)c(C(=O)c3ccccc3)cn(CC(=O)Nc3ccccc3C)c2n1 | -1.29% |
| O=C(COc1ccccc1F)Nc1ccc2nc(SCC(=O)N3CCCC3)sc2c1 | -28% |
| Cc1nc(-c2ccc(S(=O)(=O)NCc3ccc(OC(C)C)cc3)cc2)co1 | 16.3% |
| COc1ccc(C(=O)NCCn2cc(SCC(=O)Nc3ccc(F)cc3)c3ccccc32)cc1 | 16.9% |
| CCNc1ccc(-c2nc(-c3ccncc3)no2)cc1[N+](=O)[O-] | -18.6% |
| CCn1c(=O)cc(OCC(=O)N2CCN(c3cccc(Cl)c3)CC2)c2ccccc21 | -11.3% |
| CCCOc1ccc(NC(=O)CC2C(=O)N(c3ccc(F)cc3)C(=O)N2CC(C)C)cc1 (stereo not drawn) | 18.8% |
| COc1cc(C(=O)N2CCC(c3nc4ccccc4s3)CC2)cc(OC)c1OC | 4.82% |
| CCCCOc1ccc(CNC(=O)C2CCCN(c3nnc(-n4c(C)ccc4C)s3)C2)cc1 (stereo not drawn) | -9.5% |
| COc1ccc(C2=C(C)C(=NCc3ccc(OC(C)C)cc3)NS2(=O)=O)cc1 | 4.41% |
| Cc1ccc2c(c1)sc1nc(=O)n(-c3ccc(Cl)c(Cl)c3)c(=O)n12 | 9.88% |
| CN(CCOc1ccc(Cl)c(Cl)c1)Cc1ccccc1 | active: 65.4% |
